Laboratory results: the supplement of paper PMC11417369
This is one part of the list.

Each sequence was assayed on PF3D7_0420300 AP2 domain 1 (GST-tagged) (assay: gcPBM binding intensity (ln(normalized median fluorescence intensity)); higher = stronger DNA binding).
Outline: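 DNA-binding domains from P. falciparum, fused to GST and produced in E. coli, were put on an Agilent 4 × 180k double-stranded probe array for 1 h in 1× PBS holding 1% milk, 0.2 mg/ml BSA, 0.5% salmon testes DNA and 0.03% Triton X-100. Probes were primer-extended, 36 bp long and drawn from intergenic genomic regions, with negative controls included. After Alexa488 anti-GST antibody detection and a 488 nm scan, binding intensity was set as the highest Masliner-normalised natural-log median intensity across replicate spots of either probe orientation.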

Sequence | gcPBM binding intensity (ln)
TTTTTTTTTTTTTTTTTTTTTTTTTCATATTAATAT [GTGCAC_negctrl_site351] | 8.36
ATTGATACATCCAATACACACTACATATTATGATGT [CACACA_site6965] | 9.46
TTGGCATACAGACACACACACACACCCCCACATATA [CACACA_site590] | 10.1
AATTTATTAAAAAAATGTACTTATTTTTTTGTATAA [XGTACX_site5844] | 8.95
TTTTTTTTTTTTTTTACACACTTTATTCAAACAACT [CACACA_site4104] | 9.08
AAAAAAATATATAATAGTACATATATAGGAATATAT [XGTACX_site4591] | 9.45
TAATATCTTGAGTCATCACACATTGATTAATGAATC [CACACA_site5735] | 9.02
TGAATACAGATATTCACACAAATAGTTTTGATATAT [CACACA_site5527] | 9.09
CTTTTTTTTTTTTTTGCACACACATATATAAATATA [CACACA_site3950] | 9.83
AGTGGAAATTTTATTTGTACATAAATATTTACATAC [XGTACX_site633] | 9.18
CTTTCTCTCAAAATGACATGCAATTTGTTTCTTTTT [TGCATGCA_site169] | 9.32
ATATATATATATATTTGTACTTAATTGATTTTACTT [XGTACX_site2663] | 9.34
ATGCGTTTAGCAAAAAGTACATATATATATAATATT [XGTACX_site1928] | 9.22
ATTATTGATTTATAAACACACACTCGAAGATGTTTA [CACACA_site8294] | 9.27
ATTTTTTCTAGACATGCATGTGAAATTTACTTTTTT [TGCATGCA_site305] | 9.24
TTGAAATACTTTATTTGTACATATAGCAAAGTGTAT [XGTACX_site8782] | 9.12
GTTATAGAAGCATTCACACACACACGGACATACACA [CACACA_site6801] | 10.1
TTTTTTTATAAAAATGAACACACACCGATATATATA [CACACA_site9161] | 9.63
TATTATAATATATTTGTGCACATAATACCTCCGCTA [GTGCAC_site9570] | 9.19
AATATATACATATGTATGCACTTTTTAATTATTTTT | 9.4
ACATATAAGTTATATACACACAATAATATGTAAATA [CACACA_site6766] | 9.53
ATATTTTTTATAAAATGTACTTATTATTAGAATATA [XGTACX_site2460] | 8.9
TACAAAATATGGTAATAAAGTAGTTACATGAATTGG [XGTACX_negctrl_site522] | 9.32

Sequence | gcPBM binding intensity (ln)
TAGTAAGAATTACTGTGTACTAAAATATTAAAAAGT [XGTACX_site2578] | 9.26
AAATAGTCTTCTCTTGCATGTAACAAATATATATAT [TGCATGCA_site428] | 9.34
AATAAAAACAAACAAAAAAACAAATAAATAAATAAA [CACACA_negctrl_site483] | 9.65
AATATATTGCACCATTGGACCTGAATAATTCTTCCA [CACACA_negctrl_site1071] | 9.21
GTAAGAAACGGACACACACACATATATATATATATA [CACACA_site4593] | 9.75
AAAAAAAAAAATTCCAGTACACACAATAATACTAAA [XGTACX_site5930] | 9.76
TAAATAATCATAGTTCTACACACCTATATTGCAAAA [CACACA_site8190] | 9.35
ATATATATAATATGATGTACTATTTTGATAAAAAAT [XGTACX_site3975] | 9.25
GTTATAGAAGCATTCACACACACACCGACATACACA [CACACA_site4914] | 10.1
ATATATATATAAATATAAATATATATATATATATAT [CACACA_negctrl_site1685] | 8.82
AATAATTAAATATATTTATAACAGGAAAATATTTAT [XGTACX_negctrl_site175] | 9.27
ATAAATTATATTCAAGTGCATGTAACTTATTATTAT | 9.23
AAAAAAATCACATAATATACTTTATTTTATTTTGTA [GTGCAC_negctrl_site562] | 9.15
ACAAAGAACTATAATACACACAAGAATATATTGGAT [CACACA_site7771] | 9.94
TTATAAGATTTATGTACACACATATACACCCCTCTA [CACACA_site4562] | 9.43
TATATATAGAAACACACACACACATATATATATATT [CACACA_site2539] | 10.1
TCATACATTTTCCTTGCACACATTTATAATTAATGT [CACACA_site614] | 9.67
TTGTAATATATAAAAGTGCATATATGGTTCCATATA [GTGCAC_site9544] | 9.23
TAATTTATTGTACGTGCATGCTATTTTTTATTTTTA [TGCATGCA_site1059] | 9.54
AACAAAAAAACAAACACACACACACCCATATATATA [CACACA_site3652] | 9.98
ATATGTGAATAAAAATGTACGTGTTCTTTTTTTTTT [XGTACX_site320] | 9.24
TGTGGCCCTGCGAGGTGGTCATCATGAATACGAAAA [XGTACX_site1526] | 8.84
TCAAAAATTTATATAGTGCAATATATATATAATGTA | 9.08

Sequence | gcPBM binding intensity (ln)
TGAATTAACAAATAGACACACATATATATATATATA [CACACA_site3195] | 9.3
TTAAAAAATATATGCGTGCACTAATATTTCATATGC | 9.05
TACTATTTTTATAATACACACATATATTTGTGATAT [CACACA_site1775] | 9.38
ACCATTTGTACTTACGCACACATAAAATATATATAT [CACACA_site1545] | 9.64
TATTATATAATTTTAACACACAAGAATATAAACTTT [CACACA_site1363] | 9.45
TAACAAAATGTAAATAAACACACATATATATATATA [CACACA_site8352] | 9.37
AACATTCTATGTTGCACACAAAGAGAAAAATTTATT [CACACA_site3995] | 9.33
AAAAAGAAAAAACTTACACACATATATACCCCCATG [CACACA_site4463] | 10.2
TGAAGGAATACAGCTCGTACATGTGTAAAGAGATAA [XGTACX_site500] | 9.32
TAATTTAAATGATGTAGTACATATAAATATATCTAA [XGTACX_site262] | 9.05
ATGGAAATTTTATCATGTACATATACCGTTGAATAA [XGTACX_site5420] | 9.08
AATAAAAAAATTAAAATTAAAAAATTAAAACTTAAA [CACACA_negctrl_site987] | 8.85
TACCTATAAAAGTACACACACACACGGATATAAATA [CACACA_site6569] | 10.3
ACTATAAATATATACACATGCGCACACACAAGTGGG [TGCATGCA_site432] | 9.68
ATTGATCTTTATTGTTGTACATTAAACGTTAATTTT [XGTACX_site1788] | 9.47
ATATCAATTTTTGGTGGTACGTAGGAAGTTTCAGAA [XGTACX_site6881] | 9.27
ACTTTAAAAAGATTCACACAAAATATATAAAAATAT [CACACA_site5334] | 9.08
TTATGCAAAAATAAATCAATATGTTGATATGTAAAT [GTGCAC_negctrl_site128] | 9.28
ATATAATTTAATTTCTGTACATAAGAGAAAAAACAA [XGTACX_site4865] | 9.23
AACATATACTGTTTATGTACACATTGTTATATTAAT [XGTACX_site4276] | 9.48
TACATTTTATGCATTTGTACACAAATAAATAAATAA [XGTACX_site2652] | 8.86
TTTTTTTTTTTTTATACACACATTAAAATAAAAAAG [CACACA_site3946] | 8.87
CTCTTCCTTAATTTTTGTACTTAAAATTTTTTTTTT [XGTACX_site1628] | 9.38

Sequence | gcPBM binding intensity (ln)
AAAGAAAAAAAAAAAACACACAAAAAAAATCAAAAT [CACACA_site2871] | 9.94
ATATATCTATATAGAAATGTATATATATATATGTGT [TGCATGCA_negctrl_site349] | 9.27
TATTATTCTACTATTATATTCTATATTATTTATAGT [CACACA_negctrl_site499] | 9.37
TAAAATCAATGTTCTTGTACTTAAAATGTTTGTTCT [XGTACX_site5490] | 9.32
AGTATAAAATTTGGTTGTACATTTTTAAAAAAATTA [XGTACX_site7519] | 8.94
AAAATTAAATTATTTACACACAATATTAAAATATTT [CACACA_site3244] | 9.27
AAATAAATTTGACCAGTGCAATAACTTTGTATACCT [GTGCAC_site9446] | 9.26
TATAATATAAAAAAAAGTACACGAATTTTTTTTCAG [XGTACX_site6105] | 9.04
ACAATATATTTTTGAGCATGCGCAAAAGAGAATGCA [TGCATGCA_site566] | 9.26
ATCCAAAAGAAAAATAGTACAGATATGAACAATATG [XGTACX_site6944] | 9.62
AACCCCAAGCCGTACTGTACATATATTTTTATTTTA [XGTACX_site142] | 9.67
AAAAGTTGTATTTGCACACATAAAAAAAAGATATTA [CACACA_site3840] | 9.24
AAATTCAAACAAATTACACACATTTTTTTTTAATTT [CACACA_site3596] | 9.57
AAAAAAAAAAAAAAATGTACATATATATTTATATAT [XGTACX_site229] | 9.09
TCAAAGGAATTTTTATGTACATATAAACTTTATTCT [XGTACX_site3432] | 9.13
TATATATATCTTTTGGTGCATATTTCGAATATATGT | 9.3
TATATATTTACATATTGTACAATATAAAAATAATTA [XGTACX_site19] | 9.05
AAAAAAAAAATTGAAAGTACACAAATGGGGTATTAT [XGTACX_site3960] | 9.46
TACTGTTTAAAATATACACACATAATCAAAAAAAAA [CACACA_site2510] | 9.51
TCGTTATCCATCTTCACACATATATATAGTAATATA [CACACA_site5492] | 9.54
